Reference: patent publication US5747454A, “Chromogranin peptides” (Albert Einstein College of Medicine of Yeshiva University, priority 1995, dated 1998)
At least one peptide structure holds a part that was inferred or is arguable (an end, a ring closure or a residue). Positions of bridges follow the written chain, without caps; N, C: chain ends. Non-standard residues stand in square brackets, D forms with d. Residues, ends and D or L forms follow the SMILES beside them.

What was measured:
bovine parathyroid cells [1] = test: PTH secretion from freshly prepared bovine parathyroid cells, quantitated by radioimmunoassay; format: cell-based; details: 100 mM peptide, 0.5 mM calcium, 1 hour incubation; controls: low calcium 92 ± 6.8, normal calcium 57 ± 4.8, high calcium 39 ± 6.8
CGRP = details: cited from earlier work
bovine parathyroid cells [2] = details: cited from earlier work
calcitonin = details: cited from earlier work

## CC[C@H](C)[C@@H]1NC(=O)[C@@H](NC(=O)[C@H](CCCCN)NC(=O)[C@H](CCSC)NC(=O)[C@@H](NC(=O)[C@H](CCC(=O)O)NC(=O)[C@@H](NC(=O)[C@H](CC(=O)O)NC(=O)CNC(=O)[C@H](CCCCN)NC(=O)[C@H](CC(N)=O)NC(=O)[C@H](CCSC)NC(=O)[C@@H]2CCCN2C(=O)[C@H](CO)NC(=O)[C@H](CC(N)=O)NC(=O)[C@@H](NC(=O)[C@@H]2CCCN2C(=O)[C@@H](N)CC(C)C)C(C)C)[C@@H](C)O)C(C)C)CSSC[C@@H](C(=O)N[C@@H](Cc2ccccc2)C(=O)N[C@@H](CCC(=O)O)C(=O)O)NC(=O)[C@H](CCC(=O)O)NC(=O)[C@H](CCCCN)NC(=O)[C@H](CO)NC(=O)[C@H](C(C)C)NC(=O)[C@@H]2CCCN2C(=O)[C@H](CCSC)NC(=O)[C@@H]2CCCN2C(=O)[C@H](CO)NC(=O)[C@@H]2CCCN2C(=O)[C@H](CCCCN)NC(=O)[C@H](CO)NC(=O)[C@H](CC(C)C)NC(=O)[C@H]([C@@H](C)O)NC(=O)[C@H](CC(=O)O)NC(=O)[C@H](CO)NC(=O)[C@H]([C@@H](C)CC)NC(=O)[C@H](C(C)C)NC(=O)[C@H](CCC(=O)O)NC(=O)[C@H](C(C)C)NC1=O [CGA1-40, Leu-Pro-Val-Asn-Ser-Pro-Met-Asn-Lys -Gly-Asp-Thr-Glu-Val-Met-Lys-Cys-Ile-Val-Glu-Val-Ile-Ser -Asp-Thr-Leu-Ser-Lys-Pro-Ser-Pro-Met-Pro-Val-Ser-Lys-Glu -Cys-Phe-Glu] (H-LPVNSPMNKGDTEVMKCIVEVISDTLSKPSPMPVSKECFE-OH; disulfide 17-38)
Bovine parathyroid cells [1]
  PTH: 47 ± 5.2 ng/mL
CGRP
  secretion of the hormone CGRP: stimulates secretion of the hormone CGRP
Bovine parathyroid cells [2]
  inhibition of parathyroid hormone secretion: effective in inhibiting parathyroid hormone secretion
calcitonin
  secretion of calcitonin: inhibits secretion of calcitonin

## CC[C@H](C)[C@@H]1NC(=O)[C@@H](NC(=O)[C@H](CCCCN)NC(=O)[C@H](CCSC)NC(=O)[C@@H](NC(=O)[C@H](CCC(=O)O)NC(=O)[C@@H](NC(=O)[C@H](CC(=O)O)NC(=O)CNC(=O)[C@H](CCCCN)NC(=O)[C@H](CC(N)=O)NC(=O)[C@H](CCSC)NC(=O)[C@@H]2CCCN2)[C@@H](C)O)C(C)C)CSSC[C@@H](C(=O)N[C@@H](Cc2ccccc2)C(=O)N[C@@H](CCC(=O)O)C(=O)O)NC(=O)[C@H](CCC(=O)O)NC(=O)[C@H](CCCCN)NC(=O)[C@H](CO)NC(=O)[C@H](C(C)C)NC(=O)[C@@H]2CCCN2C(=O)[C@H](CCSC)NC(=O)[C@@H]2CCCN2C(=O)[C@H](CO)NC(=O)[C@@H]2CCCN2C(=O)[C@H](CCCCN)NC(=O)[C@H](CO)NC(=O)[C@H](CC(C)C)NC(=O)[C@H]([C@@H](C)O)NC(=O)[C@H](CC(=O)O)NC(=O)[C@H](CO)NC(=O)[C@H]([C@@H](C)CC)NC(=O)[C@H](C(C)C)NC(=O)[C@H](CCC(=O)O)NC(=O)[C@H](C(C)C)NC1=O [Peptide V, Pro-Met-Asn-Lys-Gly-Asp-Thr-Glu-Val-Met-Lys -Cys-Ile-Val-Glu-Val-Ile-Ser-Asp-Thr-Leu-Ser-Lys-Pro-Ser -Pro-Met-Pro-Val-Ser-Lys-Glu-Cys-Phe-Glu] (H-PMNKGDTEVMKCIVEVISDTLSKPSPMPVSKECFE-OH; disulfide 12-33)
Bovine parathyroid cells [1]
  PTH: 49 ± 5 ng/mL

## CC[C@H](C)[C@@H]1NC(=O)[C@@H](NC(=O)[C@@H](N)CCCCN)CSSC[C@@H](C(=O)N[C@@H](Cc2ccccc2)C(=O)N[C@@H](CCC(=O)O)C(=O)O)NC(=O)[C@H](CCC(=O)O)NC(=O)[C@H](CCCCN)NC(=O)[C@H](CO)NC(=O)[C@H](C(C)C)NC(=O)[C@@H]2CCCN2C(=O)[C@H](CCSC)NC(=O)[C@@H]2CCCN2C(=O)[C@H](CO)NC(=O)[C@@H]2CCCN2C(=O)[C@H](CCCCN)NC(=O)[C@H](CO)NC(=O)[C@H](CC(C)C)NC(=O)[C@H]([C@@H](C)O)NC(=O)[C@H](CC(=O)O)NC(=O)[C@H](CO)NC(=O)[C@H]([C@@H](C)CC)NC(=O)[C@H](C(C)C)NC(=O)[C@H](CCC(=O)O)NC(=O)[C@H](C(C)C)NC1=O [Peptide I, Lys-Cys-Ile-Val-Glu-Val-Ile-Ser-Asp-Thr-Leu -Ser-Lys-Pro-Ser-Pro-Met-Pro-Val-Ser-Lys-Glu-Cys-Phe-Glu] (H-KCIVEVISDTLSKPSPMPVSKECFE-OH; disulfide 2-23)
Bovine parathyroid cells [1]
  PTH: 57 ± 1.9 ng/mL

## CC[C@H](C)[C@@H]1NC(=O)[C@@H](NC(=O)[C@H](CCCCN)NC(C)=O)CSSC[C@@H](C(=O)N[C@@H](Cc2ccccc2)C(=O)N[C@@H](CCC(=O)O)C(=O)N[C@@H](C(=O)O)[C@H](C)O)NC(=O)[C@H](CCC(=O)O)NC(=O)[C@H](CCCCN)NC(=O)[C@H](C)NC(=O)[C@H](C(C)C)NC(=O)[C@@H]2CCCN2C(=O)[C@H](CCSC)NC(=O)[C@@H]2CCCN2C(=O)[C@H](C)NC(=O)[C@@H]2CCCN2C(=O)[C@H](CCCCN)NC(=O)[C@H](C)NC(=O)[C@H](CC(C)C)NC(=O)[C@H](C)NC(=O)[C@H](CC(=O)O)NC(=O)[C@H](C)NC(=O)[C@H]([C@@H](C)CC)NC(=O)[C@H](C(C)C)NC(=O)[C@H](CCC(=O)O)NC(=O)[C@H](C(C)C)NC1=O [Peptide III, acetyl-Lys-Cys-Ile-Val-Glu-Val-Ile-Ala-Asp -Ala-Leu-Ala-Lys-Pro-Ala-Pro-Met-Pro-Val-Ala-Lys-Glu-Cys -Phe-Glu-D-Thr] (Ac-KCIVEVIADALAKPAPMPVAKECFE[dT]-OH; disulfide 2-23)
Bovine parathyroid cells [1]
  PTH: 65 ± 5.2 ng/mL

## CC[C@H](C)[C@@H]1NC(=O)[C@@H](NC(=O)[C@H](CCCCN)NC(=O)[C@H](CCSC)NC(=O)[C@@H](NC(=O)[C@H](CCC(=O)O)NC(=O)[C@@H](NC(=O)[C@@H](N)CC(=O)O)[C@@H](C)O)C(C)C)CSSC[C@@H](C(=O)N[C@@H](Cc2ccccc2)C(=O)N[C@@H](CCC(=O)O)C(=O)O)NC(=O)[C@H](CCC(=O)O)NC(=O)[C@H](CCCCN)NC(=O)[C@H](CO)NC(=O)[C@H](C(C)C)NC(=O)[C@@H]2CCCN2C(=O)[C@H](CCSC)NC(=O)[C@@H]2CCCN2C(=O)[C@H](CO)NC(=O)[C@@H]2CCCN2C(=O)[C@H](CCCCN)NC(=O)[C@H](CO)NC(=O)[C@H](CC(C)C)NC(=O)[C@H]([C@@H](C)O)NC(=O)[C@H](CC(=O)O)NC(=O)[C@H](CO)NC(=O)[C@H]([C@@H](C)CC)NC(=O)[C@H](C(C)C)NC(=O)[C@H](CCC(=O)O)NC(=O)[C@H](C(C)C)NC1=O [Peptide IV, Asp-Thr-Glu-Val-Met-Lys-Cys-Ile-Val-Glu-Val -Ile-Ser-Asp-Thr-Leu-Ser-Lys-Pro-Ser-Pro-Met-Pro-Val-Ser -Lys-Glu-Cys-Phe-Glu] (H-DTEVMKCIVEVISDTLSKPSPMPVSKECFE-OH; disulfide 7-28)
Bovine parathyroid cells [1]
  PTH: 56 ± 6.5 ng/mL

## CC[C@H](C)[C@@H]1NC(=O)[C@@H](NC(=O)[C@H](CCCCN)NC(C)=O)CSSC[C@@H](C(=O)N[C@@H](Cc2ccccc2)C(=O)N[C@@H](CCC(=O)O)C(=O)N[C@@H](C(=O)O)[C@H](C)O)NC(=O)[C@H](CCC(=O)O)NC(=O)[C@H](CCCCN)NC(=O)[C@H](CO)NC(=O)[C@H](C(C)C)NC(=O)[C@@H]2CCCN2C(=O)[C@H](CCSC)NC(=O)[C@@H]2CCCN2C(=O)[C@H](CO)NC(=O)[C@@H]2CCCN2C(=O)[C@H](CCCCN)NC(=O)[C@H](CO)NC(=O)[C@H](CC(C)C)NC(=O)[C@H]([C@@H](C)O)NC(=O)[C@H](CC(=O)O)NC(=O)[C@H](CO)NC(=O)[C@H]([C@@H](C)CC)NC(=O)[C@H](C(C)C)NC(=O)[C@H](CCC(=O)O)NC(=O)[C@H](C(C)C)NC1=O [Peptide II, acetyl-Lys-Cys-Ile-Val-Glu-Val-Ile-Ser-Asp -Thr-Leu-Ser-Lys-Pro-Ser-Pro-Met-Pro-Val-Ser-Lys-Glu-Cys -Phe-Glu-D-Thr] (Ac-KCIVEVISDTLSKPSPMPVSKECFE[dT]-OH; disulfide 2-23)
Bovine parathyroid cells [1]
  PTH: 59 ± 6.1 ng/mL

## CC[C@H](C)[C@@H]1NC(=O)[C@@H](NC(=O)[C@H](CCCCN)NC(=O)[C@H](CCSC)NC(=O)[C@@H](NC(=O)[C@H](CCC(=O)O)NC(=O)[C@@H](NC(=O)[C@H](CC(=O)O)NC(=O)CNC(=O)[C@H](CCCCN)NC(=O)[C@H](CC(N)=O)NC(=O)[C@H](CCSC)NC(=O)[C@@H]2CCCN2C(C)=O)[C@@H](C)O)C(C)C)CSSC[C@@H](C(=O)N[C@@H](Cc2ccccc2)C(=O)N[C@@H](CCC(=O)O)C(=O)N[C@@H](C(=O)O)[C@H](C)O)NC(=O)[C@H](CCC(=O)O)NC(=O)[C@H](CCCCN)NC(=O)[C@H](C)NC(=O)[C@H](C(C)C)NC(=O)[C@@H]2CCCN2C(=O)[C@H](CCSC)NC(=O)[C@@H]2CCCN2C(=O)[C@H](C)NC(=O)[C@@H]2CCCN2C(=O)[C@H](CCCCN)NC(=O)[C@H](C)NC(=O)[C@H](CC(C)C)NC(=O)[C@H](C)NC(=O)[C@H](CC(=O)O)NC(=O)[C@H](C)NC(=O)[C@H]([C@@H](C)CC)NC(=O)[C@H](C(C)C)NC(=O)[C@H](CCC(=O)O)NC(=O)[C@H](C(C)C)NC1=O [Peptide VI, acetyl-Pro-Met-Asn-Lys-Gly-Asp-Thr-Glu-Val -Met-Lys-Cys-Ile-Val-Glu-Val-Ile-Ala-Asp-Ala-Leu-Ala-Lys -Pro-Ala-Pro-Met-Pro-Val-Ala-Lys-Glu-Cys-Phe-Glu-D-Thr] (Ac-PMNKGDTEVMKCIVEVIADALAKPAPMPVAKECFE[dT]-OH; disulfide 12-33)
Bovine parathyroid cells [1]
  PTH: 48 ± 3.9 ng/mL
